Experimental data reported in PMC6380343.
No constants are given. Whether binding was seen depends on the method and setting. For some of these results: In cells and extracts the contact can be indirect. Some results given as binding are weak or reduced against the parent protein; the word gives no strength. Tags and fused reporters may be left off the sequences shown. Blank lines part the entries; values can stand above or below the binder they belong to.

Assays:
GST-tagged NOB1 (human) = target: T1, GST-tagged NOB1 (human) (UniProt Q9ULX3); experiment: pull-down; 50 ng GST-tagged bait with equal amounts of His-tagged or untagged prey; 50 mM Tris-HCl pH 8.0, 10% glycerol, 300 mM NaCl, 5 mM MgCl2, 0.1% Tween20; 1 h at 4°C; glutathione sepharose; western blotting; both purified
T1 sequence: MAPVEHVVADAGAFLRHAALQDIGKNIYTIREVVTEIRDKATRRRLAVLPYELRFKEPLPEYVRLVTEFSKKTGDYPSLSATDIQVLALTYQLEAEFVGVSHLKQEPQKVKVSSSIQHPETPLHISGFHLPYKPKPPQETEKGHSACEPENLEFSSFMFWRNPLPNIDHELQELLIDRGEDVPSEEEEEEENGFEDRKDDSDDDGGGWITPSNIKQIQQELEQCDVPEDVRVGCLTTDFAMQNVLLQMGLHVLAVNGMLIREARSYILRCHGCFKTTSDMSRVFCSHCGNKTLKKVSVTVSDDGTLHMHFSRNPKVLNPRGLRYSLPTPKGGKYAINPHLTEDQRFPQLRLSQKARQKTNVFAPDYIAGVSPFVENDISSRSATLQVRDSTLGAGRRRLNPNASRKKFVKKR

FLAG-tagged NOB1 (human) [1] = target: T2, FLAG-tagged NOB1 (human) (UniProt Q9ULX3); experiment: co-IP; whole cell extracts (sonication) of HEK293 cells expressing the FLAG-tagged bait at endogenous levels; anti-FLAG antibody coupled to protein G sepharose, non-antibody-bound beads as control; eluates western blotted for endogenous proteins
T2 sequence: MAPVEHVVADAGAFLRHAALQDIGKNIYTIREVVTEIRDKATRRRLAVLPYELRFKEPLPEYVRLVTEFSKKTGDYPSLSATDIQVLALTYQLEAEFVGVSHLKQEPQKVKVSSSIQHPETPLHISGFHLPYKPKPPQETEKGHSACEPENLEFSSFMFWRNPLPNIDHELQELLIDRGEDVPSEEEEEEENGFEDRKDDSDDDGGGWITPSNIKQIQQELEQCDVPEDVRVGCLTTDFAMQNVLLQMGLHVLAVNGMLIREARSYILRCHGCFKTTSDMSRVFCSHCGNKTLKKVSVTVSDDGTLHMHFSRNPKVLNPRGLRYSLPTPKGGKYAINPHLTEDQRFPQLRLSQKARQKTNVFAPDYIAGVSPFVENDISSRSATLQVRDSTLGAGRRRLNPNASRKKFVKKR

FLAG-tagged NOB1 (human) [2] = target: T2, FLAG-tagged NOB1 (human); experiment: condition: only after treatment of the cells with 0.1 μg/μl actinomycin D; co-IP; as the anti-FLAG immunoprecipitation, but cells treated with 0.1 μg/μl actinomycin D (2 h by the legend, 18 h by the methods) before extract preparation; blot with antibody against endogenous NOB1
[3] = target: T3, GST-tagged ENP1 (human), Q13895; experiment: pull-down; 50 ng GST-tagged bait with equal amounts of His-tagged or untagged prey; 50 mM Tris-HCl pH 8.0, 10% glycerol, 300 mM NaCl, 5 mM MgCl2, 0.1% Tween20; 1 h at 4°C; glutathione sepharose; western blotting; both purified; details: remark: other sources report otherwise
T3 chain: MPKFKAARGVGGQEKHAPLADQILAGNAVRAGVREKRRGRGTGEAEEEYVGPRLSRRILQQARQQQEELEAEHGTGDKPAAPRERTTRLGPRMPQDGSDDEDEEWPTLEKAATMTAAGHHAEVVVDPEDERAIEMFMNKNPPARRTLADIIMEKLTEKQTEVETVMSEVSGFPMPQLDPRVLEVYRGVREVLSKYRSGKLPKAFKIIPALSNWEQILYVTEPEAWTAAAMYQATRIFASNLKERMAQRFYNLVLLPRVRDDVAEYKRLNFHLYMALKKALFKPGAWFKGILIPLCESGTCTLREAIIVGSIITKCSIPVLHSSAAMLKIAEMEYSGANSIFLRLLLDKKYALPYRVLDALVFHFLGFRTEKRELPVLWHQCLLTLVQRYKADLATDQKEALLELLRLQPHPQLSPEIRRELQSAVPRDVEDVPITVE

binding (GST-tagged NOB1 (human)): binds weakly
B1: His-tagged NOB1 (protein, UniProt Q9ULX3 1-412)
chain: MAPVEHVVADAGAFLRHAALQDIGKNIYTIREVVTEIRDKATRRRLAVLPYELRFKEPLPEYVRLVTEFSKKTGDYPSLSATDIQVLALTYQLEAEFVGVSHLKQEPQKVKVSSSIQHPETPLHISGFHLPYKPKPPQETEKGHSACEPENLEFSSFMFWRNPLPNIDHELQELLIDRGEDVPSEEEEEEENGFEDRKDDSDDDGGGWITPSNIKQIQQELEQCDVPEDVRVGCLTTDFAMQNVLLQMGLHVLAVNGMLIREARSYILRCHGCFKTTSDMSRVFCSHCGNKTLKKVSVTVSDDGTLHMHFSRNPKVLNPRGLRYSLPTPKGGKYAINPHLTEDQRFPQLRLSQKARQKTNVFAPDYIAGVSPFVENDISSRSATLQVRDSTLGAGRRRLNPNASRKKFVKKR

binding (FLAG-tagged NOB1 (human) [1]): binds
binding (FLAG-tagged NOB1 (human) [2]): no binding
B2: endogenous NOB1 (protein, UniProt Q9ULX3 1-412)
chain: MAPVEHVVADAGAFLRHAALQDIGKNIYTIREVVTEIRDKATRRRLAVLPYELRFKEPLPEYVRLVTEFSKKTGDYPSLSATDIQVLALTYQLEAEFVGVSHLKQEPQKVKVSSSIQHPETPLHISGFHLPYKPKPPQETEKGHSACEPENLEFSSFMFWRNPLPNIDHELQELLIDRGEDVPSEEEEEEENGFEDRKDDSDDDGGGWITPSNIKQIQQELEQCDVPEDVRVGCLTTDFAMQNVLLQMGLHVLAVNGMLIREARSYILRCHGCFKTTSDMSRVFCSHCGNKTLKKVSVTVSDDGTLHMHFSRNPKVLNPRGLRYSLPTPKGGKYAINPHLTEDQRFPQLRLSQKARQKTNVFAPDYIAGVSPFVENDISSRSATLQVRDSTLGAGRRRLNPNASRKKFVKKR

binding [3]: no binding
B3: His-tagged NOB1, Q9ULX3 1-412 (protein)
chain: MAPVEHVVADAGAFLRHAALQDIGKNIYTIREVVTEIRDKATRRRLAVLPYELRFKEPLPEYVRLVTEFSKKTGDYPSLSATDIQVLALTYQLEAEFVGVSHLKQEPQKVKVSSSIQHPETPLHISGFHLPYKPKPPQETEKGHSACEPENLEFSSFMFWRNPLPNIDHELQELLIDRGEDVPSEEEEEEENGFEDRKDDSDDDGGGWITPSNIKQIQQELEQCDVPEDVRVGCLTTDFAMQNVLLQMGLHVLAVNGMLIREARSYILRCHGCFKTTSDMSRVFCSHCGNKTLKKVSVTVSDDGTLHMHFSRNPKVLNPRGLRYSLPTPKGGKYAINPHLTEDQRFPQLRLSQKARQKTNVFAPDYIAGVSPFVENDISSRSATLQVRDSTLGAGRRRLNPNASRKKFVKKR
